B1: TEV protease; numbered along this chain (parent)
chain: MGESLFKGPRDYNPISSSICHLTNESDGHTTSLYGIGFGPFIITNKHLFRRNNGTLVVQSLHGVFKVKDTTTLQQHLVDGRDMIIIRMPKDFPPFPQKLKFREPQREERICLVTTNFQTKSMSSMVSDTSCTFPSGDGIFWKHWIQTKDGQCGSPLVSTRDGFIVGIHSASNFTNTNNYFTSVPKNFMELLTNQEAQQWVSGWRLNADSVLWGGHKVFMVKPEEPFQPVKEATQL

The variants in this assay derive from B1. In words: raw area under fraction-flipped curve 0-4 h after induction (AUC4h, not background-subtracted), DNA-recorder readout of cleavage of the substrate (dimensionless); higher = more cleavage of the substrate by the protease variant. The conditions noted are these: temperature: 34 °C; time window: 0-4 h after rhamnose induction. Here is the method: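 In vivo DNA recorder in E. coli TOP10(DE3) ΔrhaA at 34 °C. Each TEVp single-site mutant (parent TEVp 0) is paired with a single-site variant of the 7-mer TEVs (canonical ENLYFQ|S). The substrate sits between flexible linkers in a Bxb1-sfGFP-TEVs-SsrA fusion, so cleavage stabilises Bxb1 and speeds flipping of a recombination array, read by NGS. The value is the raw area under the fraction-flipped curve over 0-4 h after rhamnose induction (AUC4h), with ≥20 reads per time point. It is not background-subtracted; inactive controls average about 0.047.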

The other results are listed elsewhere or left out. The full chains were built here from the parent and the listed change. Inactive controls read about 0.05.
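Also: Bxb1 expression induced with 0.2% (w/v) L-rhamnose at OD600 near 0.5, cultures sampled hourly, flipped fraction per protease–substrate barcode pair counted by paired-end Illumina sequencing.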

Consider MGESLFKGPRDYNPISSSICHLTNESDGHTTSLYGIGFGPFIITNKHLFRRNNGTLVVQSLHGVFKVKDTTTWQQHLVDGRDMIIIRMPKDFPPFPQKLKFREPQREERICLVTTNFQTKSMSSMVSDTSCTFPSGDGIFWKHWIQTKDGQCGSPLVSTRDGFIVGIHSASNFTNTNNYFTSVPKNFMELLTNQEAQQWVSGWRLNADSVLWGGHKVFMVKPEEPFQPVKEATQL [L73W], for which the “area with substrate ENLDFQS” value stood at 0.0698, the “area with substrate ENLEFQS” value stood at 0.0575, the “area with substrate ENLFFQS” value is 0.0839 and the “area with substrate ENLNFQS” value is 0.0687. Also, the “area with substrate ENLPFQS” value was determined as 0.0361 and the “area with substrate ENLQFQS” value came out at 0.0484.

Regarding MGESLFKGPRDYNPISSSICHLTNESDGHTTSLYGIGFGPFIITNKPLFRRNNGTLVVQSLHGVFKVKDTTTLQQHLVDGRDMIIIRMPKDFPPFPQKLKFREPQREERICLVTTNFQTKSMSSMVSDTSCTFPSGDGIFWKHWIQTKDGQCGSPLVSTRDGFIVGIHSASNFTNTNNYFTSVPKNFMELLTNQEAQQWVSGWRLNADSVLWGGHKVFMVKPEEPFQPVKEATQL [H47P], the “area with substrate ENLDFQS” value came to 0.0552, the “area with substrate ENLFFQS” value is 0.0541, the “area with substrate ENLHFQS” value was determined as 0.0569 and the “area with substrate ENLIFQS” value came out at 0.0694. Also, the “area with substrate ENLKFQS” value was 0.065, the “area with substrate ENLLFQS” value was determined as 0.0544, the “area with substrate ENLMFQS” value worked out at 0.101 and the “area with substrate ENLNFQS” value came to 0.0655. The “area with substrate ENLPFQS” value came out at 0.0741, the “area with substrate ENLRFQS” value amounted to 0.0636 and the “area with substrate ENLSFQS” value amounted to 0.0452.

Take MGESLFKGPRDYNPISSSICHLTNESDGHTTSLYGIGFGPFIITNKHLFRRNNGTLVVQSLHGVFKVKDTTTLQQHLVDGRGMIIIRMPKDFPPFPQKLKFREPQREERICLVTTNFQTKSMSSMVSDTSCTFPSGDGIFWKHWIQTKDGQCGSPLVSTRDGFIVGIHSASNFTNTNNYFTSVPKNFMELLTNQEAQQWVSGWRLNADSVLWGGHKVFMVKPEEPFQPVKEATQL [D82G]: the “area with substrate ENLDFQS” value turned out to be 0.052, the “area with substrate ENLEFQS” value was 0.0552, the “area with substrate ENLFFQS” value turned out to be 0.0571 and the “area with substrate ENLHFQS” value was 0.0628. The “area with substrate ENLIFQS” value was 0.0656, the “area with substrate ENLKFQS” value is 0.0662, the “area with substrate ENLLFQS” value was found to be 0.054 and the “area with substrate ENLMFQS” value was found to be 0.0558. The “area with substrate ENLNFQS” value is 0.0665, the “area with substrate ENLPFQS” value was 0.0727, the “area with substrate ENLQFQS” value was 0.0582 and the “area with substrate ENLVFQS” value is 0.0568. Further, the “area with substrate ENLWFQS” value was found to be 0.0464.

As to MGESLFKGPRDYNPISSSICHLTNESDGHTTSLYGIGFGPFIITNKHLFRRNNGTLVVQSLHGVFKVKDTTTLQQHLVDGRDMIIIRMPKDFPPFPQKLKFREPQREERICLVTTNFVTKSMSSMVSDTSCTFPSGDGIFWKHWIQTKDGQCGSPLVSTRDGFIVGIHSASNFTNTNNYFTSVPKNFMELLTNQEAQQWVSGWRLNADSVLWGGHKVFMVKPEEPFQPVKEATQL [Q118V], the “area with substrate ENLDFQS” value amounted to 0.053, the “area with substrate ENLFFQS” value was 0.0753, the “area with substrate ENLHFQS” value was found to be 0.0783 and the “area with substrate ENLLFQS” value is 0.0923. Also, the “area with substrate ENLNFQS” value was 0.0582, the “area with substrate ENLPFQS” value is 0.0712, the “area with substrate ENLQFQS” value came out at 0.0805 and the “area with substrate ENLSFQS” value came out at 0.0555.

For the variant MGESLFKGPRDYNPISSSICHLTNESDGHTTSLYGIGFGPFIITNKHLFRRNNGTLVVQSLHGVFKVKDTTTLQQHLVDGRDMIIIRMPKDFPPFPQKLKFREPQREERICLVTTNFMTKSMSSMVSDTSCTFPSGDGIFWKHWIQTKDGQCGSPLVSTRDGFIVGIHSASNFTNTNNYFTSVPKNFMELLTNQEAQQWVSGWRLNADSVLWGGHKVFMVKPEEPFQPVKEATQL [Q118M], the “area with substrate ENLDFQS” value came to 0.0666, the “area with substrate ENLEFQS” value worked out at 0.0583, the “area with substrate ENLHFQS” value came out at 0.0841 and the “area with substrate ENLKFQS” value was determined as 0.0985. The “area with substrate ENLMFQS” value was 0.128, the “area with substrate ENLNFQS” value was determined as 0.0469 and the “area with substrate ENLVFQS” value was determined as 0.0891.

For MGESLFKGPRDYNPISSSICHLTNESDGHTTSLYGIGFGPFIITNKHLFRRNNGTLVVQSLWGVFKVKDTTTLQQHLVDGRDMIIIRMPKDFPPFPQKLKFREPQREERICLVTTNFQTKSMSSMVSDTSCTFPSGDGIFWKHWIQTKDGQCGSPLVSTRDGFIVGIHSASNFTNTNNYFTSVPKNFMELLTNQEAQQWVSGWRLNADSVLWGGHKVFMVKPEEPFQPVKEATQL [H62W], the “area with substrate ENLDFQS” value came to 0.0749, the “area with substrate ENLEFQS” value was determined as 0.0739, the “area with substrate ENLFFQS” value worked out at 0.0859 and the “area with substrate ENLHFQS” value was 0.0606. Further, the “area with substrate ENLKFQS” value came to 0.081, the “area with substrate ENLNFQS” value was 0.0837, the “area with substrate ENLQFQS” value was found to be 0.0645 and the “area with substrate ENLRFQS” value came out at 0.0505. Moreover, the “area with substrate ENLSFQS” value came out at 0.0726, the “area with substrate ENLVFQS” value was found to be 0.0816 and the “area with substrate ENLWFQS” value was 0.0624.

With MGESLFKGPRDYNPISSSICHLTNESDGHTTSLYGIGFGPFIITNKHLFRRNNGTLVVQSLHGVFKVKDTTTLQQHLVDGRDMIIIRMPKDFPPFPQKLKFREPQREERICLVATNFQTKSMSSMVSDTSCTFPSGDGIFWKHWIQTKDGQCGSPLVSTRDGFIVGIHSASNFTNTNNYFTSVPKNFMELLTNQEAQQWVSGWRLNADSVLWGGHKVFMVKPEEPFQPVKEATQL [T114A], the “area with substrate ENLDFQS” value is 0.0496, the “area with substrate ENLEFQS” value amounted to 0.1, the “area with substrate ENLFFQS” value worked out at 0.0739 and the “area with substrate ENLKFQS” value was 0.0788. Also, the “area with substrate ENLLFQS” value stood at 0.0629, the “area with substrate ENLNFQS” value was found to be 0.0639, the “area with substrate ENLPFQS” value amounted to 0.062 and the “area with substrate ENLQFQS” value is 0.0655. In addition, the “area with substrate ENLRFQS” value stood at 0.0726.

As to MGESLFKGPRDYNPISSSICHLTNESDGHTTSLYGIGFGPFIITNKHLFRRNNGTLVVQSLHGVFKVKDTTTLQQHLVDGRDMIIIRMPKDYPPFPQKLKFREPQREERICLVTTNFQTKSMSSMVSDTSCTFPSGDGIFWKHWIQTKDGQCGSPLVSTRDGFIVGIHSASNFTNTNNYFTSVPKNFMELLTNQEAQQWVSGWRLNADSVLWGGHKVFMVKPEEPFQPVKEATQL [F92Y], the “area with substrate ENLDFQS” value worked out at 0.0507, the “area with substrate ENLEFQS” value came out at 0.05, the “area with substrate ENLFFQS” value was determined as 0.0798 and the “area with substrate ENLHFQS” value is 0.0706. Moreover, the “area with substrate ENLIFQS” value amounted to 0.0845, the “area with substrate ENLKFQS” value was 0.0734, the “area with substrate ENLMFQS” value stood at 0.0542 and the “area with substrate ENLPFQS” value is 0.0404. Also, the “area with substrate ENLQFQS” value was determined as 0.0746 and the “area with substrate ENLSFQS” value amounted to 0.07.

MGESLFKGPRDYNPISSSICHLTNESDGHTTSLYGIGFGPFIITNKHLFRRNNGTLVVQSLHGVFKVKDTTTLQQHLVDGRDMIIIRMPKDEPPFPQKLKFREPQREERICLVTTNFQTKSMSSMVSDTSCTFPSGDGIFWKHWIQTKDGQCGSPLVSTRDGFIVGIHSASNFTNTNNYFTSVPKNFMELLTNQEAQQWVSGWRLNADSVLWGGHKVFMVKPEEPFQPVKEATQL [F92E]: the “area with substrate ENLDFQS” value amounted to 0.0509, the “area with substrate ENLEFQS” value is 0.0528, the “area with substrate ENLFFQS” value turned out to be 0.0551 and the “area with substrate ENLHFQS” value came to 0.0595. Moreover, the “area with substrate ENLKFQS” value stood at 0.0722, the “area with substrate ENLNFQS” value is 0.0612, the “area with substrate ENLPFQS” value was found to be 0.058 and the “area with substrate ENLSFQS” value is 0.061. Moreover, the “area with substrate ENLWFQS” value amounted to 0.0576.

Regarding MGESLFKGPRDYNPISSSICHLTNESDGHTTSLYGIGFGPFIITNKHLFRRNNGTLVVQSLHGVFKVKDTTTLQQHLVDGRDMIIIRMPKDFPPFPQKLKFREPQREMRICLVTTNFQTKSMSSMVSDTSCTFPSGDGIFWKHWIQTKDGQCGSPLVSTRDGFIVGIHSASNFTNTNNYFTSVPKNFMELLTNQEAQQWVSGWRLNADSVLWGGHKVFMVKPEEPFQPVKEATQL [E108M], the “area with substrate ENLDFQS” value was 0.0582, the “area with substrate ENLHFQS” value was found to be 0.0662, the “area with substrate ENLKFQS” value was found to be 0.0634 and the “area with substrate ENLLFQS” value stood at 0.0679. Besides, the “area with substrate ENLNFQS” value is 0.0688, the “area with substrate ENLPFQS” value came to 0.0499 and the “area with substrate ENLTFQS” value came to 0.0566.

These data come from the supplement of paper PMC12217912.
